{"source": "paper PMC4605305", "about": "“TRAP150 interacts with the RNA-binding domain of PSF and antagonizes splicing of numerous PSF-target genes in T cells” (Nucleic Acids Research, 2015)", "binders": {"B1": {"name": "TRAP150 (endogenous, JSL1 nuclear extract) (protein, UniProt Q9Y2W1 1-955)", "chain": "MSKTNKSKSGSRSSRSRSASRSRSRSFSKSRSRSRSLSRSRKRRLSSRSRSRSYSPAHNRERNHPRVYQNRDFRGHNRGYRRPYYFRGRNRGFYPWGQYNRGGYGNYRSNWQNYRQAYSPRRGRSRSRSPKRRSPSPRSRSHSRNSDKSSSDRSRRSSSSRSSSNHSRVESSKRKSAKEKKSSSKDSRPSQAAGDNQGDEAKEQTFSGGTSQDTKASESSKPWPDATYGTGSASRASAVSELSPRERSPALKSPLQSVVVRRRSPRPSPVPKPSPPLSSTSQMGSTLPSGAGYQSGTHQGQFDHGSGSLSPSKKSPVGKSPPSTGSTYGSSQKEESAASGGAAYTKRYLEEQKTENGKDKEQKQTNTDKEKIKEKGSFSDTGLGDGKMKSDSFAPKTDSEKPFRGSQSPKRYKLRDDFEKKMADFHKEEMDDQDKDKAKGRKESEFDDEPKFMSKVIGANKNQEEEKSGKWEGLVYAPPGKEKQRKTEELEEESFPERSKKEDRGKRSEGGHRGFVPEKNFRVTAYKAVQEKSSSPPPRKTSESRDKLGAKGDFPTGKSSFSITREAQVNVRMDSFDEDLARPSGLLAQERKLCRDLVHSNKKEQEFRSIFQHIQSAQSQRSPSELFAQHIVTIVHHVKEHHFGSSGMTLHERFTKYLKRGTEQEAAKNKKSPEIHRRIDISPSTFRKHGLAHDEMKSPREPGYKAEGKYKDDPVDLRLDIERRKKHKERDLKRGKSRESVDSRDSSHSRERSAEKTEKTHKGSKKQKKHRRARDRSRSSSSSSQSSHSYKAEEYTEETEEREESTTGFDKSRLGTKDFVGPSERGGGRARGTFQFRARGRGWGRGNYSGNNNNNSNNDFQKRNREEEWDPEYTPKSKKYYLHDDREGEGSDKWVSRGRGRGAFPRGRGRFMFRKSSTSPKWAHDKFSGEEGEIEDDESGTENREEKDNIQPTTE"}, "B2": {"name": "HisFLAG-PSF exRRMs (266-484) (domain or fragment, UniProt P23246 266-484, looked up)", "chain": "GRSEEKISDSEGFKANLSLLRRPGEKTYTQRCRLFVGNLPADITEDEFKRLFAKYGEPGEVFINKGKGFGFIKLESRALAEIAKAELDDTPMRGRQLRVRFATHAAALSVRNLSPYVSNELLEEAFSQFGPIERAVVIVDDRGRSTGKGIVEFASKPAARKAFERCSEGVFLLTTTPRPVIVEPLEQLDDEDGLPEKLAQKNPMYQKERETPPRFAQHG", "notes": "also called HisFLAG-exRRMs; HFexRRM1+2; source: E. coli Rosetta(DE3)pLysS, purified (Ni-NTA, SEC); not shown: His6, N-terminal, kept; FLAG, N-terminal, kept"}}, "key": {"[1]": {"target": "T1, FLAG-PSF WT (full length PSF, FLAG-tagged, stably expressed in JSL1 cells) (UniProt P23246)", "T1 sequence": "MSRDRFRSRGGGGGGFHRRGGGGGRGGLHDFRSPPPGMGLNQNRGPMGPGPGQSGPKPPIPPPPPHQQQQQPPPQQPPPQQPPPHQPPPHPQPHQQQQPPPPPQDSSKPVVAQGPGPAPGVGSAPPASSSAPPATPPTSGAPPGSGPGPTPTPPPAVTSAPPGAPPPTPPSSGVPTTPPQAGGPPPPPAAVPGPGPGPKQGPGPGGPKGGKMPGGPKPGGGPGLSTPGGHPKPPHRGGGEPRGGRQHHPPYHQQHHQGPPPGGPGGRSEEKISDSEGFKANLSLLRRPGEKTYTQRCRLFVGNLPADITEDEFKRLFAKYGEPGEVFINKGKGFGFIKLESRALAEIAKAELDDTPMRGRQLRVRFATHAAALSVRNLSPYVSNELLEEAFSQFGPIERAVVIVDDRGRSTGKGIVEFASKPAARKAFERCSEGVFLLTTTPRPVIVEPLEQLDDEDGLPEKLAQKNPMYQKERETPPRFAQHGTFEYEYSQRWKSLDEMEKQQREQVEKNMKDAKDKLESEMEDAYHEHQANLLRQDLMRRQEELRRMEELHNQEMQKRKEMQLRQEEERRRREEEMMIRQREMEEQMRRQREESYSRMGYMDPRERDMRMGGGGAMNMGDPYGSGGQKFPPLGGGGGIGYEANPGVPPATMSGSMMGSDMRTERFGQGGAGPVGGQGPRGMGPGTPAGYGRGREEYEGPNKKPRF", "test": "co-IP; anti-FLAG IP from nuclear extract (pretreated with RNase A and RNase T1) of JSL1 cells stably expressing FLAG-PSF WT or mutants; protein G Dynabeads; washes with IP buffer supplemented with 200 mM NaCl; western blot for endogenous TRAP150"}, "[2]": {"target": "T2, FLAG-PSF ΔRRMs (stably expressed in JSL1 cells) (UniProt P23246)", "T2 sequence": "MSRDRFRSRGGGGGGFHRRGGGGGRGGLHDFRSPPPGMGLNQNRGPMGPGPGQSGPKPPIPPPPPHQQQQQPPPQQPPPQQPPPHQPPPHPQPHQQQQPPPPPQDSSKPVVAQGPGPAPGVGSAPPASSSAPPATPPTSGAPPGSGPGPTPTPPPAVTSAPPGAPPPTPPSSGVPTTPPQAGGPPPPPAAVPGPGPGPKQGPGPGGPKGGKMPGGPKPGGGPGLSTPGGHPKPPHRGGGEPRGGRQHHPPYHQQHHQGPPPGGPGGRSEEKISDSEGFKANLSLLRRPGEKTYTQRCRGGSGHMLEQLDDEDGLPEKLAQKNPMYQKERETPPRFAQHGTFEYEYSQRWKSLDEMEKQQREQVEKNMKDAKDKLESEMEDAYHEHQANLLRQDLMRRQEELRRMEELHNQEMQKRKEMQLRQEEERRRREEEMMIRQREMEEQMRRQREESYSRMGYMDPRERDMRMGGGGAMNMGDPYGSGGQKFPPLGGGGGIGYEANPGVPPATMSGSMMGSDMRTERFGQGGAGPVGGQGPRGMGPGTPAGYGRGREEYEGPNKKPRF", "test": "co-IP; anti-FLAG IP from nuclear extract (pretreated with RNase A and RNase T1) of JSL1 cells stably expressing FLAG-PSF WT or mutants; protein G Dynabeads; washes with IP buffer supplemented with 200 mM NaCl; western blot for endogenous TRAP150"}, "[3]": {"substrate": "T3, PSF (endogenous, JSL1 nuclear extract) (human (endogenous in JSL1 Jurkat cells)) (UniProt P23246)", "T3 sequence": "T1 sequence", "test": "co-IP; IP with PSF antibody from RNase-treated nuclear extract of JSL1 cells, unstimulated or stimulated with PMA; protein G Dynabeads; western blot"}, "[4]": {"target": "T4, GST-TRAP266–596 (UniProt Q9Y2W1)", "T4 sequence": "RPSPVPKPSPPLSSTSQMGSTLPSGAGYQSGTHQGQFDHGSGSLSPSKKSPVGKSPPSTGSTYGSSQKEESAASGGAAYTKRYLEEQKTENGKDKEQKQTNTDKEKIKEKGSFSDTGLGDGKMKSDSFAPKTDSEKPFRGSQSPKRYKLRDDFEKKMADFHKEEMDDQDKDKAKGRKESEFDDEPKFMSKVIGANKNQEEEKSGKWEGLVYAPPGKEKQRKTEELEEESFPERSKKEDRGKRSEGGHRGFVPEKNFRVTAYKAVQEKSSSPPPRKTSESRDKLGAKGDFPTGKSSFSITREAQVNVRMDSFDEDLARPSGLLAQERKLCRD", "test": "pull-down; 40 ug GST-tagged bait on glutathione sepharose 4B beads; prey incubated 1.5 h at 4°C in PBS; washes with PBS supplemented with 300 mM NaCl; western blot; both purified"}}, "note": "Results are given in words; binding and its absence hold for the method and conditions named. For some of these results: Binding seen in cells or lysates may run through a third protein. Some entries that bind do so weakly or less than the wild type. For some of these results: Where a sequence is shown, tags or fusion partners need not be part of it."}
{"binder": "B1", "values": [{"measurement": "binding", "setting": "[1]", "value": "binds"}, {"measurement": "binding", "setting": "[2]", "value": "no binding"}, {"measurement": "binding", "setting": "[3]", "value": "binds"}]}
{"binder": "B2", "values": [{"measurement": "binding", "setting": "[4]", "value": "no binding"}]}
